Data from PMC4336329 (PLoS ONE, 2015).
Among all 310,000 compounds or so, about 14,000 (4.5%) showed an effect of 50% or more. Effects have a minus sign here. Some of the results follow.

biological target: human ether-à-go-go-related gene (hERG) potassium channel (human, UniProt Q12809); experiment: primary screen, population patch clamp on CHO cells stably expressing hERG
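Also: peak tail current of the secondary pulse compared with the same well before compound.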

Sequence of human ether-à-go-go-related gene (hERG) potassium channel (Q12809 whole entry, looked up): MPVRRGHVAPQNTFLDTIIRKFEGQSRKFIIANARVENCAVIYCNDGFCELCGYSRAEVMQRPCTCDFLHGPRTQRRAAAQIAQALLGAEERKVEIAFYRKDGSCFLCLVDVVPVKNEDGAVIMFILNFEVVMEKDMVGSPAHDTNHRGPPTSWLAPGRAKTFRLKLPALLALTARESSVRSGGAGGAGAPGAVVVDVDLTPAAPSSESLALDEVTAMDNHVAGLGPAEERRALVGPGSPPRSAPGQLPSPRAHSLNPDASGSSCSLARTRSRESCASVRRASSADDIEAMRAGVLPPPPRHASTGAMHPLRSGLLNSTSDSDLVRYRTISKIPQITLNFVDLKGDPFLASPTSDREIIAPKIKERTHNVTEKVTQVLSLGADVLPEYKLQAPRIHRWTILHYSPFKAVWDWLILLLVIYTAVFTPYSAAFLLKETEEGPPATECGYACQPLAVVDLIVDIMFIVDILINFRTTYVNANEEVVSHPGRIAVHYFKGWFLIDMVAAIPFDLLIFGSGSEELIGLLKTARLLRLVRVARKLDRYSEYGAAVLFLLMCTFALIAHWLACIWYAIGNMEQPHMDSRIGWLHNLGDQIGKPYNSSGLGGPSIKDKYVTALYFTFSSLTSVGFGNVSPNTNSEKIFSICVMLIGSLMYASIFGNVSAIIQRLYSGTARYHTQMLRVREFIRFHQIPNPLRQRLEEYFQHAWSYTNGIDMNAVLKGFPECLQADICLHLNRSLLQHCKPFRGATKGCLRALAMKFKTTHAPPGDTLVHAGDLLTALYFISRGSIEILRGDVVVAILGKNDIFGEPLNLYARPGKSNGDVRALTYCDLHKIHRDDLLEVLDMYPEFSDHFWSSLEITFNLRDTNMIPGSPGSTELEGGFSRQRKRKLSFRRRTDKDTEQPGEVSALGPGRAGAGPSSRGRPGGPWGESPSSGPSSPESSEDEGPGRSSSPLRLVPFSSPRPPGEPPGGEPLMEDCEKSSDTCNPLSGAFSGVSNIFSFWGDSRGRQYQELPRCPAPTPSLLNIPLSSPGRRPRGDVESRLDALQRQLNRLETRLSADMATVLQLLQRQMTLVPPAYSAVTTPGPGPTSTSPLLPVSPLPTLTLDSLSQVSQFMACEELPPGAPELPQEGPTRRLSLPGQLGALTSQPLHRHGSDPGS

Structure (SMILES) | hERG current change (%, negative = inhibition) at 10uM
O=c1c2ccccc2nc(-c2ccco2)n1CCCn1ccnc1 | -53.9%
NC(=O)CCn1ccc2ccccc21 | 6.6%
CCCCC(CC)C(=O)Nc1ccc(C)c(O)c1 (stereo not shown) | 37.3%
Cc1ccn2c(NCc3ccc4c(c3)OCO4)c(-c3ccc(O)cc3)nc2c1 | -11.6%
O=C(CCn1c(=S)oc2ccccc21)Nc1ccccc1F | 2.88%
CN(CC(=O)Nc1ccc(Cl)c(C(F)(F)F)c1)C(=O)Cn1cc([N+](=O)[O-])ccc1=O | -46.2%
CC(=O)Nc1ccc(S(=O)(=O)N(C)CC(=O)OCC(=O)NC(C)C23CC4CC(CC(C4)C2)C3)cc1.CN(C)C=O (stereo not shown) | 2.32%
Cc1cc(-c2nnc(SCC(=O)N3C(C)CCCC3C)o2)no1 (stereo not shown) | 13.7%
CC(C)(C)OC(=O)N1CCC[C@H]1C(=O)Nc1ccc(S(=O)(=O)C(F)F)cc1 | 6.56%
O=C1CCc2cc(NS(=O)(=O)c3ccc(F)cc3)cc3c2N1CC3 | -21.2%
Cc1cccc(C(=O)c2cnc3ccccc3c2-c2ccccc2)c1 | -0.792%
O=C1NC(=O)N(Cc2cccs2)C(=O)/C1=C/c1ccc(N2CCOCC2)cc1 | 5.86%
C1=C(c2ccccc2)CCN(c2nc3ccccc3n3cnnc23)C1 | -8.21%
Cc1cccc2cc(CN(Cc3ccco3)C(=O)NC3CCCCC3)c(=O)[nH]c12 | -38.9%
O=C(CN1C2CCC1CC(NC(=O)Nc1ccccc1)C2)NCc1ccco1 (stereo not shown) | -35.7%
COc1cc(S(=O)(=O)n2ccnc2)ccc1Br | 3.28%
COCCNC(=O)Cn1nc(C)c2ccccc2c1=O | 5.11%
CCc1ccc([C@@H]2CC=C(C(=O)O)[C@H](c3ccccc3)N2S(=O)(=O)c2ccc(C)cc2)cc1 | 17.9%
CC(SC1=Nc2ccccc2C2CC=NN12)C(=O)NC1(C#N)CCCCC1 (stereo not shown) | -19.8%
NS(=O)(=O)c1ccc(CCNC(=O)c2ccc(C#CC3(O)CCCCC3)cc2)cc1 | 5.8%
O=C(Cn1cc(S(=O)(=O)N2CCN(c3ccccc3F)CC2)c2ccccc2c1=O)NCCCN1CCCCCC1 | -61.1%
CC(C)(C)OC(=O)CNC(=O)c1[nH]cnc1C(=O)NCC(=O)OCc1ccccc1 | -13.2%
CCOc1ccccc1NC(=O)C(NCC1(N2CCCCC2)CCCCC1)c1ccccc1.O=C(O)C(=O)O (stereo not shown) | -70.9%
O=C(NC1(C(F)(F)F)Oc2ccccc2O1)N1CCC2(CC1)OCCO2 | -11.6%
CC(C)OC(=O)CSc1n[nH]c(-c2cccnc2)n1 | 19.1%
COc1ccc(C(=O)NCCS(=O)(=O)N2CCc3ccccc3C2)c(OC)c1 | -26.7%
Cc1ccc(S(=O)(=O)N2CCOCC2)cc1C(=O)N(C)CCOc1ccc(Cl)cc1 | -64%
ClC(Cl)(c1nnnn1-c1ccccc1)c1nnnn1-c1ccccc1 | -4.27%

Structure (SMILES) | hERG current change (%, negative = inhibition) at 10uM
CCC(C)NC(=O)Cn1cc2c(n1)CCC(C)C2 (stereo not shown) | 13.8%
O=C(NC(=S)Nc1ccc(Cl)cc1)c1ccccc1 | 21.3%
CN1CCN(c2nc(Nc3ccc(O)cc3)nc3ccccc23)CC1.Cl | -34.9%
O=C(Nc1cc(-c2ccccc2)nn1-c1ccccc1)c1ccccc1F | -25.4%
COC(=O)c1c(=O)n(O)c2ccc(OC)cc2[n+]1[O-] | 8.73%
COc1ccc(N2CCN(c3ccc(C(N)=O)cc3[N+](=O)[O-])CC2)cc1 | 2.51%
Cc1cc(C)cc(OCCNC(=O)CCc2ccccc2)c1 | 4.83%
O=C(CCN1C(=O)c2ccccc2S1(=O)=O)Nc1ccc(Cl)cc1 | 22.9%
CCOc1ccc(CN2CCN(CCCc3ccccc3)C(CCO)C2)cc1 (stereo not shown) | -75.5%
COC(=O)c1c(NC(=S)NN2CCN(C)CC2)sc2c1CCC(C)C2 (stereo not shown) | 43.7%
COc1ccc(-c2c(C(C)=O)c(C)nc3sc4c(=O)[nH]nnc4c23)cc1 | 8.95%
Cc1ccccc1CSc1nnc(-c2ccccc2)c(=O)[nH]1 | 18.9%
CC(C)CCCCCCNC(=S)Nc1ccc(S(=O)(=O)N2CCOCC2)cc1 | 0.149%
O=C(CN1C(=O)c2ccccc2C1=O)Nc1nc(-c2cccc([N+](=O)[O-])c2)cs1 | -0.66%
Nc1nnc(SCC(=O)Nc2ccc(Cl)c(C(=O)O)c2)s1 | 19.8%
Cc1nc(NC(=O)CSc2ccc(-c3nc4ccccc4[nH]3)cn2)sc1C | 6.22%
O=C(Nc1ccccc1)Nc1cccn(Cc2c(F)cccc2Cl)c1=O | 12.5%
COCCn1c(=O)[nH]c2cc(C(=O)NCC3CCCO3)ccc2c1=O (stereo not shown) | -7.76%
Cc1ccc(NC(=O)C(C)N=C2NS(=O)(=O)c3ccccc32)cc1F (stereo not shown) | 18.8%
O=c1c2c3c(sc2nc(NCCOCCO)n1Cc1ccco1)CCCCC3 | -6.8%
Cc1cccc(-n2cc(C#N)c(=O)[nH]c2=O)n1 | 19.3%
COC(=O)c1cn(C(=O)c2cc(OC)cc(OC)c2)c2ccccc12 | 6.84%
O=C(OCC(=O)N1CCN(C(=O)c2ccco2)CC1)c1ccccc1O | -18.2%
C=CCSc1nc(=O)n2cccc(C)c2n1 | -18.7%
COc1ccc2c(CC(=O)N(C)CC3COc4ccccc4O3)coc2c1 (stereo not shown) | -0.947%
NC(=O)c1ccc(NC(=O)COC(=O)CCC(=O)c2ccc(Cl)cc2)cc1 | 7.31%
CCN(CC)S(=O)(=O)c1ccc2c(c1)N(CC(=O)NCCc1ccc(S(N)(=O)=O)cc1)C(=O)CO2 | -1.7%
